# Reference: PubChem BioAssay AID485341 (National Center for Advancing Translational Sciences (NCATS), 2010)
# Out of some 330,000 compounds screened, about 1,700 (0.52%) were called active. Inconclusive means that the source gave no clear call. Such entries were picked first, then a sample of the others. The call rests on the fitted dose curve; in most records, active means well fitted inhibition curve with a large enough effect; inconclusive means small, poorly fitted or top-dose-only effect; inactive means no such curve, though single readings can be large or run the other way. A potency beside an inconclusive call is a rough fit, not a confirmed value.
# Target: Beta-lactamase (Escherichia coli (strain K12)) (UniProt P00811)
# Assay: qHTS Inhibitors of AmpC Beta-Lactamase (assay without detergent); further: nearly all actives have a fitted effect of over 20% in size;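 on activity change, negative = inhibition: plate controls were no compound for no effect and no enzyme for full effect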
# Details: AmpC nitrocefin hydrolysis, absorbance 480 nm, 0.0001% Triton; activity change, negative = inhibition: at 57.1 µM (top of the series) unless noted
# Procedure, shortened: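 AmpC (5.3 nM in the dispensed reagent) in 20 mM phosphate pH 7.0 with 0.01% (detergent screen) or 0.0001% Triton X-100 was preincubated with compounds for 15 min at room temperature. Nitrocefin was then added from an 800 uM solution, and hydrolysis was followed at 480 nm.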
# Potency means the concentration at half of the fitted maximal effect; tags describe the fitted curve by direction and shape.
# Sequence of UniProt P00811 (P00811 whole entry, looked up): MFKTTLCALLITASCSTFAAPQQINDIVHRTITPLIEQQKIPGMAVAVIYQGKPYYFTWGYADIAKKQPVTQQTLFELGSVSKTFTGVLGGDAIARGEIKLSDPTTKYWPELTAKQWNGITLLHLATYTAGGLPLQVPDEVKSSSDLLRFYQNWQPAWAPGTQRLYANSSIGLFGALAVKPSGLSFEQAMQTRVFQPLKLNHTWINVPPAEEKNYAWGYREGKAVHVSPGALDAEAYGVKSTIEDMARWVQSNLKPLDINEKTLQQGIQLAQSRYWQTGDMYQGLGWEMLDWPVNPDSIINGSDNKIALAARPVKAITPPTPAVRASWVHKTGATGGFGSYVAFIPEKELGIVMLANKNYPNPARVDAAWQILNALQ
SMILES,Potency,"activity change, negative = inhibition"
O=[N+]([O-])c1ccccc1NC(=S)N/N=C/c1ccc(O)c(O)c1,active: 4.47 µM,–
COc1ccc(O)c(/C=N/NC(=O)c2cccc(N3CCCC3=O)c2)c1,inactive,–
CCOC(=O)N1CCC(NC(=O)C2CCCN(C(=O)c3cc4sccc4n3C)C2)CC1 (configuration not stated),active: 0.562 µM,–
O=C(CCC1CCCCC1)Nc1cc(C(F)(F)F)ccc1N1CCOCC1,"inconclusive: 39.8 µM [inhibitor, single point]",–
Cc1cc(Cl)ccc1N=C1N=C(N)c2ccccc21,"inconclusive: 10 µM [inhibitor, partial curve, poor fit]",–
CCCNC(=O)Cn1sc2nc(C)cc(C)c2c1=O,"inconclusive: 28.2 µM [inhibitor, single point]",–
COCCN(C(=O)COC(=O)CCc1ccc(OC)cc1)c1c(N)n(Cc2ccccc2)c(=O)[nH]c1=O,"inconclusive: 39.8 µM [inhibitor, single point]",–
O=C(CN1CCN(Cc2ccccc2Cl)C1=O)NCCCN1CCOCC1,inactive,–
O=C1c2ccccc2C(=O)N1CCC1=CCCCC1,inactive,–
O=C(Nc1ccc2c(c1)OCO2)c1ccc2c(c1)OCO2,inactive,–
CN(C)c1nnnn1-c1ccc(OC(F)(F)F)cc1,inactive,–
CCN(Cc1ccccc1)S(=O)(=O)c1c(C)[nH]c(C)c1C(=O)N1CCCCC1,inactive,–
Cc1ccc(/C=C/C(=O)Nc2ccc([N+](=O)[O-])c(NC(=O)/C=C/c3ccc(C)o3)c2)o1,"inconclusive: 20 µM [inhibitor, partial curve]",–
O=C(/C=C/c1ccccc1[N+](=O)[O-])NC1CCCC1,–,inactive: -13.6% [at 2.29 µM]
O=C(/C=C/c1cccs1)Nc1ccc(N2CCOCC2)c(S(=O)(=O)Nc2ccccc2Cl)c1,"inconclusive: 3.98 µM [inhibitor, single point]",–
CC/C(C)=N\Nc1nc(-c2cc3cc(OC)ccc3oc2=O)cs1,"inconclusive: 15.8 µM [inhibitor, partial curve]",–
Cc1noc(C)c1CSCC(=O)Nc1nc2c(F)cc(F)cc2s1,"inconclusive: 17.8 µM [inhibitor, partial curve]",–
O=C(c1ccc(C(=O)N2CCOCC2)s1)N1CCOCC1,inactive,–
COC(=O)C1=C(N)Oc2cc(C)n(Cc3cccnc3)c(=O)c2C1c1ccc(OC)c(OC)c1OC (configuration not stated),"inconclusive: 4.47 µM [inhibitor, single point]",–
CCN(CC(=O)Nc1ccc(NC(C)=O)cc1)C(=O)c1cc(S(=O)(=O)N2CCCCCC2)ccc1OC,"inconclusive: 35.5 µM [inhibitor, single point]",–
CC(C)(C)C1CCC(=NNC(=O)CN(c2ccccc2)S(=O)(=O)c2ccccc2[N+](=O)[O-])CC1 (configuration not stated),"inconclusive: 39.8 µM [inhibitor, single point]",–
Cc1ccc(NC(=O)CSc2nc3[nH]c(=O)cc(O)c3s2)c(Br)c1,"inconclusive: 31.6 µM [inhibitor, single point]",–
Nc1ccc(-c2cc3ccccc3oc2=O)cc1,inactive,–
COc1ccc(-n2c(SCC(=O)Nc3ccccc3C)nc(O)c(Cc3ccccc3)c2=O)cc1,"inconclusive: 20 µM [inhibitor, partial curve]",–

SMILES,Potency,"activity change, negative = inhibition"
COc1ccc(C(=O)Nc2nc3c(s2)CCCC3)cc1S(=O)(=O)N1CCCc2ccccc21,"inconclusive: 3.98 µM [inhibitor, partial curve]",–
O=C(O/N=C1/CCSc2ccccc21)c1ccccc1,inactive,–
COc1ccc(C(=O)c2ccc(CC#N)s2)cc1,"inconclusive: 3.98 µM [inhibitor, single point]",–
Cc1cccc(OCCCSc2nc3ccc(C)cc3[nH]2)c1,"inconclusive: 1.26 µM [inhibitor, partial curve, poor fit]",–
O=C(CSc1ccccc1)Nc1nnc(-c2ccco2)o1,"inconclusive: 39.8 µM [inhibitor, single point]",–
O=c1oc2ccccc2cc1-c1nc2c(s1)CCc1ccccc1-2,"inconclusive: 17.8 µM [inhibitor, partial curve]",–
CN1C(=O)N(C)c2ccc(C=O)c3cccc1c23,inactive,–
COc1cc(NC(=O)c2cccs2)cc(OC)c1,"inconclusive: 6.31 µM [inhibitor, single point]",–
CSC(=S)N/N=C/c1ccc(Br)cc1,"inconclusive: 17.8 µM [inhibitor, partial curve, poor fit]",–
CCCCCc1ccc(CC(=O)O)cc1,inactive,–
Cc1ccccc1CS(=O)(=O)c1nnc([C@H](CC(C)C)NC(=O)OC(C)(C)C)o1,"inconclusive: 10 µM [inhibitor, partial curve]",–
c1ccc(-c2csc3nnc(SCc4ccc5c(c4)OCO5)n23)cc1,"inconclusive: 39.8 µM [inhibitor, partial curve, poor fit]",–
CCCc1cc(C(=O)Nc2ccccc2SC)no1,active: 39.8 µM,–
COc1ccccc1CNC(=O)Cn1cc2c(n1)CCCC2,"inconclusive: 44.7 µM [inhibitor, partial curve, poor fit]",–
CCOC(=O)C1CCCN(C(=O)c2csc(-c3ccc4c(c3)CCO4)n2)C1 (configuration not stated),inactive,–
O=C(CN1c2cccc3cccc(c23)S1(=O)=O)Nc1ccc(S(=O)(=O)N2CCOCC2)cc1,"inconclusive: 5.01 µM [inhibitor, partial curve]",–
Cc1ccc(NC(=O)c2cc(C)n(-c3cccc(C)c3)c2C)cc1,active: 15.8 µM,–
COc1cc(-c2nnc(NC(=O)c3ccco3)o2)cc(OC)c1OC,"inconclusive: 31.6 µM [inhibitor, single point]",–
C/C(=N\NC(=O)c1cc2ccccc2cc1O)c1ccc2c(c1)OCO2,"inconclusive: 20 µM [inhibitor, partial curve]",–
c1ccc(CN2CCN(C3=Nc4cccc5cccc3c45)CC2)cc1,inactive,–
C(=C\c1nnc2c3ccccc3ncn12)/c1ccccc1,"inconclusive: 31.6 µM [inhibitor, partial curve]",–
Cc1nn(-c2ccc([N+](=O)[O-])cc2)c(N)c1-c1ccccc1,"inconclusive: 39.8 µM [inhibitor, single point]",–
CCOc1ccc(-c2cn3ccccc3n2)cc1[N+](=O)[O-],inactive,–
Nc1c(C(=O)N2CCCC2)sc2nc(-c3ccccc3)ccc12,inactive,–

SMILES,Potency,"activity change, negative = inhibition"
O=C(NCC1CCCO1)c1c(O)c2cccc3c2n(c1=O)CCC3 (configuration not stated),inactive,–
Cc1ccc(S(=O)(=O)C2(C(=O)NCc3ccc4c(c3)OCO4)CC2)cc1,"inconclusive: 44.7 µM [inhibitor, partial curve, poor fit]",–
Cc1nn(-c2ccccc2)c(C)c1C(=O)OC(C)C(=O)NC1CCCCC1 (configuration not stated),inactive,–
COc1ccc(Cl)cc1NC(=O)CN(C)C(=O)c1ccc(COc2ccccc2)cc1,"inconclusive: 39.8 µM [inhibitor, single point]",–
CCN(CC)S(=O)(=O)c1ccc(C(=O)NCc2ccc3[nH]c4c(c3c2)CCCC4)cc1,active: 25.1 µM,–
COc1ccccc1-c1ccc(/C=C2/C=C(CC(C)C)OC2=O)o1,"inconclusive: 25.1 µM [inhibitor, single point]",–
COc1ccc(-n2c(C)cc(C(=O)CSc3nnc(-c4cccs4)o3)c2C)cc1,"inconclusive: 3.55 µM [inhibitor, full curve, poor fit]",–
N#CCC(=O)N/N=C/c1ccc(Cl)cc1,"inconclusive: 1.41 µM [inhibitor, full curve, poor fit]",–
CN(C)C(=S)SSC(=S)N(C)C,"inconclusive: 39.8 µM [inhibitor, single point]",–
COc1ccc(/C=N/NC(=O)c2ccc(N)cc2)cc1Cn1cc([N+](=O)[O-])cn1,"inconclusive: 14.1 µM [inhibitor, partial curve, poor fit]",–
CCC1CCCCN1C(=O)CSc1nnc(-c2cccc(Cl)c2)o1 (configuration not stated),active: 5.01 µM,–
CCN(CC(=O)Nc1ccccc1C(F)(F)F)C(=O)CCS(=O)(=O)c1ccc(Cl)cc1,"inconclusive: 39.8 µM [inhibitor, single point]",–
O=C(Nc1nc(-c2cccs2)cs1)c1ccc(Cl)cc1,active: 28.2 µM,–
O=C(NCc1cccnc1)c1ccccn1,"inconclusive: 1.12 µM [inhibitor, partial curve, poor fit]",–
CCc1cc(=O)oc2cc(C)c(CN3CCCC3)c(O)c12,active: 11.2 µM,–
COc1cc(/C=C2/SC(=S)N(CC(=O)Nc3nc4ccccc4s3)C2=O)cc(OC)c1OC,"inconclusive: 7.94 µM [inhibitor, full curve, poor fit]",–
CCc1nc2sc3ccccc3c(=O)c2c(=O)n1CCOC,inactive,–
Cn1cccc1-c1nc2ccc(NC(=O)c3cccs3)cc2[nH]1,inactive,–
COCCNC(=S)Nc1ccc(N2CCOCC2)c(S(=O)(=O)Nc2ccccc2OC)c1,active: 10 µM,–
CC(C)=CCc1c(O)cc2oc3c(CC=C(C)C)c(O)c(O)c(CC=C(C)C)c3c(=O)c2c1O,active: 14.1 µM,–
O=C(NNC(=O)c1sccc1-n1cccc1)c1cccc(Cl)c1,"inconclusive: 8.91 µM [inhibitor, single point]",–
O=C(COc1ccccc1[N+](=O)[O-])NCC1(N2CCOCC2)CCCCC1,inactive,–
Cc1ccc(Sc2nnc(Cc3ccccc3)c3ccccc23)cc1,"inconclusive: 0.112 µM [inhibitor, full curve, poor fit]",–
Cc1ccc(Nc2nc(N)c([N+](=O)[O-])c(N3CCC(C)CC3)n2)cc1C,"inconclusive: 1.41 µM [inhibitor, full curve, poor fit]",–
